Measurements reported in PubChem BioAssay AID1476 (National Center for Advancing Translational Sciences (NCATS), 2009).
Screen size: about 200,000 compounds; about 4,500 (2.2%) were called active. Inconclusive results, whose numbers are uncertain, are shown with a selection of clear calls. The call rests on the fitted dose curve; in most records, active means well fitted inhibition curve with a large enough effect; inconclusive means small, poorly fitted or top-dose-only effect, or effect the other way; inactive means flat fitted curve, though single readings scatter. Potencies beside an inconclusive call are fits to weak or partial responses and may not hold up.

target: Cruzipain (Trypanosoma cruzi) (UniProt P25779); test: qHTS Assay for Promiscuous and Specific Inhibitors of Cruzain (without detergent); details: purified cruzain, Z-FR-AMC fluorescence, no detergent; further: nearly all actives have a fitted effect of over 40% in size;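 on max response, negative = inhibition: plate controls were enzyme without inhibitor for no effect and buffer without enzyme for full effect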
Procedure, shortened: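 Detergent-free condition (0.00005% Triton X-100) in acetate buffer pH 5.5 with DTT. 1.5 nM enzyme and compound were pre-mixed 15 min, then 2 uM Z-FR-AMC substrate added; reaction progress from fluorescence change between first and third reads (60 s).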
Potency means the concentration at half of the fitted maximal effect; tags describe the fitted curve by direction and shape.

UniProt P25779, sequence (P25779 whole entry, looked up): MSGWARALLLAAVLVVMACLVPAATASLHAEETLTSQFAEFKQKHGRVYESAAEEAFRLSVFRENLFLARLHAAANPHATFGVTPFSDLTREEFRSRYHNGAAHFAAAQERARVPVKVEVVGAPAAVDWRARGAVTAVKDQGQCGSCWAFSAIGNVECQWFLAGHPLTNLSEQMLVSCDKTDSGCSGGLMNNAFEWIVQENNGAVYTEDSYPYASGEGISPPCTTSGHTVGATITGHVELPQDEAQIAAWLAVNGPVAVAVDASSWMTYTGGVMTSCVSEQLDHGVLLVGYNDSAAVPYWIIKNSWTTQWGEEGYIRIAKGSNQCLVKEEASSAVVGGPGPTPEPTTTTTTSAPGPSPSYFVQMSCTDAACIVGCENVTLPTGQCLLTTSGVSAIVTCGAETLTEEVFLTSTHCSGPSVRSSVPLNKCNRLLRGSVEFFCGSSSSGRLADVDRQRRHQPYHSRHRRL

Compound | Potency | max response, negative = inhibition
CC1Cc2ccccc2N1C(=O)c1cc2sccc2n1Cc1ccccc1 (stereo not given) | active: 25.1 µM | –
Cc1ccc(C)c(N2CCN(C(=O)c3cc4c(=O)n(Cc5cccs5)ccc4nc3C)CC2)c1 | inconclusive: 7.94 µM [activator, full curve] | –
COc1ccc(-n2nnnc2/C=C\Nc2ccccc2C(=O)c2ccccc2)cc1 | inconclusive: 25.1 µM [inhibitor, single point] | –
Oc1ccccc1N=Nc1nc(-c2ccccc2)c(-c2ccccc2)[nH]1 | inconclusive: 31.6 µM [inhibitor, single point] | –
Cc1cc2nc(NC3=NCN(CCN4CCOCC4)CN3)nc(C)c2cc1C | – | inactive: -6.42%
COc1cc2c3cc1Oc1cc(ccc1O)C[C@@H]1c4c(cc(OC)c(O)c4Oc4ccc(cc4)C[C@H]3[N+](C)(C)CC2)CC[N+]1(C)C | – | inactive: 16.2%
CCN(CC)c1ccc2cc(-c3nc(-c4ccc(Cl)cc4Cl)cs3)c(=O)oc2c1 | – | inactive: 8.04%
CCn1cc([N+](=O)[O-])c(C(=O)Nc2nc(-c3ccc(C)cc3)c(C)s2)n1 | inconclusive: 39.8 µM [activator, single point] | –
CCOC(=O)c1c(C)n(OCc2ccccc2)c2ccc3nonc3c12 | inconclusive: 39.8 µM [inhibitor, single point] | –
O=C1C2CC=CCC2C(=O)N1c1ccc(NCCc2ccc(Cl)cc2)c([N+](=O)[O-])c1 (stereo not given) | inconclusive: 25.1 µM [inhibitor, single point] | –
Cc1ccccc1C(=O)OCc1cc(=O)n2nc(C3CC3)sc2n1 | – | inactive: 7.22%
CCOC(=O)N1CCC(NC(=O)c2ccc3c(c2)N(Cc2cc(C)ccc2C)C(=O)c2ccccc2S3(=O)=O)CC1 | inconclusive: 39.8 µM [activator, single point] | –
CN(C)c1nc(-c2ccc3c(c2)OCO3)nc2ccccc12 | – | inactive: -10%
Oc1ccc2ccccc2c1/C=N/Nc1nnc(-c2ncc[nH]2)c2ccccc12 | active: 25.1 µM | –
COc1ccc([N+](=O)[O-])cc1NC(=O)Nc1cccc(Cl)c1 | inconclusive: 31.6 µM [inhibitor, single point] | –
COc1cc(C2C(C#N)=C(N)Oc3cc(N(C)C)ccc32)cc2c1OCO2 (stereo not given) | inconclusive: 12.6 µM [inhibitor, partial curve] | –
CCOc1ccc(C(=O)CSc2nc3cc(C(=O)NC4CCCC4)ccc3c(=O)n2CC2CCCO2)cc1 (stereo not given) | – | inactive: -5.52%
Cc1ccc(C)c(NC(=O)c2nc(S(C)(=O)=O)ncc2N(Cc2ccc(C(C)(C)C)cc2)Cc2ccco2)c1 | active: 7.94 µM | –
CCCCC[C@H](O)/C=C/[C@@H]1[C@@H](C/C=C\CCCC(=O)O)[C@H]2CO[C@@H]1C2 | inconclusive: 25.1 µM [activator, partial curve] | –
COc1ccccc1NC(=O)c1sc2nc(C)c(C(=O)Nc3ccc(C)cc3C)c(-c3ccc(Br)cc3)c2c1N | – | inactive: -3.22%
COc1ccc(Cl)cc1NC(=O)CN(C)C(C)C(=O)NCC1CCCCC1 (stereo not given) | inconclusive: 31.6 µM [activator, single point] | –
Nc1ccc2nc(-c3cc(Cl)c(N)c(Cl)c3)[nH]c2c1 | active: 15.8 µM | –

Compound | Potency | max response, negative = inhibition
Cc1cccc(NC(=O)c2cnc3sccn3c2=O)c1C | inconclusive: 39.8 µM [inhibitor, single point] | –
COCCCNC(=O)Cn1cc(/C=C(\C#N)C(=O)N2CCN(c3ccccc3)CC2)c2ccccc21 | inconclusive: 25.1 µM [activator, partial curve] | –
COCCn1nnnc1C(c1cc2ccc(C)cc2[nH]c1=O)N(Cc1ccco1)Cc1cccs1 (stereo not given) | inconclusive: 25.1 µM [activator, single point] | –
Cc1cccc(NC(=O)Cn2cc(C(=O)C3CCCCC3)c3ccccc32)c1C | – | inactive: 1.37%
Cc1oc(=O)c(NC(=O)c2cccc(Cl)c2)cc1C(=O)c1ccccc1 | active: 0.631 µM | –
O=[N+]([O-])c1ccccc1/C=N/N1CCN(c2ccncc2S(=O)(=O)N2CCCCC2)CC1 | inconclusive: 39.8 µM [activator, single point] | –
COc1cccc(CN2C(=O)c3ccccc3Sc3ccc(C(=O)NCCc4ccc(C)cc4)cc32)c1 | inconclusive: 39.8 µM [inhibitor, single point] | –
CC(C)(C)C(=O)O/N=C1/C(=O)N(c2ccccc2)c2ccccc21 | active: 20 µM | –
CC1Cc2nc(SCC(=O)Nc3nccs3)n(Cc3ccccc3)c(=O)c2S1 (stereo not given) | inconclusive: 25.1 µM [inhibitor, partial curve, poor fit] | –
CC[n+]1c(/C=C/N(C)c2ccccc2)oc2ccccc21 | – | inactive: -5.64%
Cc1cc(C)n(Cc2ccc(NC(=O)c3ccc(COc4ccccc4Br)cc3)cc2)n1 | inconclusive: 31.6 µM [inhibitor, single point] | –
CCCC1=Nc2cc(C(=O)NCCc3ccc(OCC)cc3)ccc2Sc2ccccc21 | inconclusive: 20 µM [inhibitor, partial curve] | –
CN(C)CCN=Cc1c(O)n(-c2cccc3ccccc23)c(=O)[nH]c1=O | – | inactive: -10.1%
Cc1nc2sc(C(c3ccc(Cl)cc3)N3CCN(c4ccccc4F)CC3)c(O)n2n1 (stereo not given) | inconclusive: 31.6 µM [activator, single point] | –
COc1ccccc1C(=O)NCc1nnnn1-c1ccc(C)c(C)c1 | – | inactive: 1.27%
C[C@@H](C(=O)O)/C(=C/c1ccc2c(c1)OCO2)C(=O)O | – | inactive: 0.344%
COc1ccc(C2=C(C)C(=O)N(Cc3ccc(C(=O)Nc4cccc(F)c4)cc3)S2(=O)=O)cc1 | inconclusive: 31.6 µM [inhibitor, single point] | –
N#Cc1c(NC(=O)Cn2c(=O)oc3ccccc32)oc(-c2ccccc2)c1-c1ccccc1 | inconclusive: 39.8 µM [inhibitor, single point] | –
COc1ccc(CNC(=O)Cn2c(=O)nc(-c3ccccc3F)c3cc(Cl)ccc32)cc1 | – | inactive: -4.61%
CCN(CCCNC(=O)c1ccc(Sc2ccc(F)cc2)c(NC(C)=O)c1)c1ccccc1 | – | inactive: 10.7%
O=C(NCC(c1ccc2c(c1)OCO2)N1CCN(c2ccccc2)CC1)C(=O)Nc1cccc(F)c1 (stereo not given) | – | inactive: -18.1%
Cc1c(Cl)cccc1NC(=O)C1CCCN(c2nnc(-n3c(C)ccc3C)s2)C1 (stereo not given) | – | inactive: -11%

Compound | Potency | max response, negative = inhibition
O=C(NCc1ccc2c(c1)OCO2)c1ccc2c(c1)N(Cc1cccc(Cl)c1)C(=O)c1ccccc1S2=O (stereo not given) | inconclusive: 39.8 µM [inhibitor, single point] | –
Cc1ccccc1C(=O)Nc1ccc(C(=O)OCc2cc(=O)n3c4c(sc3n2)CCCC4)cc1 | – | inactive: -0.805%
CCOc1ccccc1NC(=O)CSc1nccn1Cc1ccc(F)cc1 | – | inactive: -7.68%
O=C(OCC1CCCO1)c1ccc2c(c1)N(Cc1ccccc1F)C(=O)c1ccccc1S2(=O)=O (stereo not given) | – | inactive: 12.4%
Cc1cc(C(=O)COC(=O)c2ccc3c(c2)OCO3)c(C)n1Cc1cccs1 | inconclusive: 15.8 µM [inhibitor, partial curve] | –
Cc1cc(C(=O)COC(=O)CNC(=O)c2ccc(F)cc2)c(C)n1Cc1ccco1 | active: 15.8 µM | –
CNc1oc(/C=C/c2cc(OC)c(OC)c(OC)c2)nc1C#N | active: 10 µM | –
Cc1cccc(OCCCCn2c(C3CC(=O)N(c4ccc(C)cc4C)C3)nc3ccccc32)c1 (stereo not given) | inconclusive: 20 µM [activator, partial curve] | –
Cc1ccc(S(=O)(=O)N2CCCc3cc(NC(=O)c4c(F)cccc4F)ccc32)cc1 | inconclusive: 31.6 µM [inhibitor, single point] | –
CCc1ccc(C2=C(C)C(N3CCC(C(=O)NCc4ccc(C)o4)CC3)=NS2(=O)=O)cc1 | – | inactive: -1.29%
CCOC(=O)COc1ccc(C(=O)c2ccccc2)c(O)c1 | – | inactive: -4.19%
Cc1nn(-c2ccccc2)c(Cl)c1/C=N/NS(=O)(=O)c1ccc(Br)cc1 | inconclusive: 15.8 µM [inhibitor, partial curve, poor fit] | –
Cc1cccc(C)c1N(CC(=O)NN=C1CCCCCC1)S(C)(=O)=O | inconclusive: 7.94 µM [inhibitor, single point] | –
O=C(Nc1ccon1)c1sc2ccccc2c1Cl | inconclusive: 7.94 µM [inhibitor, single point] | –
Cc1ccccc1CN(c1ccc(C(=O)N2CCc3ccccc3C2)cc1)S(C)(=O)=O | inconclusive: 31.6 µM [activator, single point] | –
CCCCCCSc1nc(O)c(C2OC(=O)c3c2ccc(OC)c3OC)c(=O)n1CC (stereo not given) | inconclusive: 39.8 µM [activator, single point] | –
C=CCCC(=O)Nc1nc(C)c(-c2csc(Nc3cc(OC)ccc3OC)n2)s1 | inconclusive: 25.1 µM [inhibitor, partial curve, poor fit] | –
COc1ccccc1-c1nc(C#N)c(N2CCN(c3cccc(Cl)c3)CC2)o1 | inconclusive: 31.6 µM [inhibitor, single point] | –
Cc1cccc(N(C)c2nc3ccc(C)cc3n3nnnc23)c1 | inconclusive: 39.8 µM [inhibitor, single point] | –
S=c1nc(C2CC2)[nH]c2ccccc12 | inconclusive: 25.1 µM [inhibitor, single point] | –
Cc1cc(Br)cc2c1NC(=O)C2(c1c(C)n(C)n(-c2ccccc2)c1=O)c1c(C)n(C)n(-c2ccccc2)c1=O | inconclusive: 39.8 µM [activator, single point] | –
